# Measurements as given in the supplement of paper PMC12645437, “Orthogonal IMiD-Degron Pairs Induce Selective Protein Degradation in Cells” (ACS Chemical Biology, 2025).
# Some of the results follow.
# B1: Q9UKT9 (peptide)
# chain: FQCEICGRKFTQKGNLLRHIKL
# B2: Q9UKT9 (peptide)
# chain: FGCNQCGARFTQKGNLLRHIKL
# B3: Q9UKT9 (peptide)
# chain: FVCEICGHPFTQKGNLLRHIKL
# B4: Q9UKT9 (peptide)
# chain: LNCEICGFNCTQKGNLLRHIKL
# B5: Q9UKT9 (peptide)
# chain: FLCEICGALFTQKGNLLRHIKL
# B6: Q9UKT9 (peptide)
# chain: FRCDVCGADFTQKGNLLRHIKL
# B7: Q9UKT9 (peptide)
# chain: FGCEQCGALFTQKGNLLRHIKL
# B8: Q9UKT9 (peptide)
# chain: LMCNQCGFLCTQKGNLLRHIKL
# B9: Q9UKT9 (peptide)
# chain: FACDICGAMFTQKGNLLRHIKL
# B10: Q9UKT9 (peptide)
# chain: LTCEICGFDCTQKGNLLRHIKL
# B11: Q9UKT9 (peptide)
# chain: FLCEICGHWFTQKGNLLRHIKL
# B12: Q9UKT9 (peptide)
# chain: FWCEVCGAVFTQKGNLLRHIKL
# B13: Q9UKT9 (peptide)
# chain: FECNQCGAKFTQKGNLLRHIKL
# B14: Q9UKT9 (peptide)
# chain: FFCEICGRGFTQKGNLLRHIKL
# B15: Q9UKT9 (peptide)
# chain: FRCPQCGAHFTQKGNLLRHIKL
# B16: Q9UKT9 (peptide)
# chain: FKCNVCGAMFTQKGNLLRHIKL
# B17: Q9UKT9 (peptide)
# chain: LHCPICGFMCTQKGNLLRHIKL
# B18: Q9UKT9 (peptide)
# chain: FCCDQCGAFFTQKGNLLRHIKL
# B19: Q9UKT9 (peptide)
# chain: FWCEICGRRFTQKGNLLRHIKL
# B20: Q9UKT9 (peptide)
# chain: FYCPICGAQFTQKGNLLRHIKL
# B21: Q9UKT9 (peptide)
# chain: FQCNQCGHAFTQKGNLLRHIKL
# B22: Q9UKT9 (peptide)
# chain: FRCEICGHRFTQKGNLLRHIKL
# B23: Q9UKT9 (peptide)
# chain: FECPICGRTFTQKGNLLRHIKL
# B24: Q9UKT9 (peptide)
# chain: FRCEICGRRFTQKGNLLRHIKL
# B25: Q9UKT9 (peptide)
# chain: FDCNQCGRNFTQKGNLLRHIKL
# B26: Q9UKT9 (peptide)
# chain: FDCNQCGRWFTQKGNLLRHIKL
# B27: Q9UKT9 (peptide)
# chain: FSCDICGALFTQKGNLLRHIKL
# B28: Q9UKT9 (peptide)
# chain: FACEICGHIFTQKGNLLRHIKL
# B29: Q9UKT9 (peptide)
# chain: FMCEICGHEFTQKGNLLRHIKL
# B30: Q9UKT9 (peptide)
# chain: FTCNVCGADFTQKGNLLRHIKL
# B31: Q9UKT9 (peptide)
# chain: LKCPICGFFCTQKGNLLRHIKL
# B32: Q9UKT9 (peptide)
# chain: FGCEVCGAWFTQKGNLLRHIKL
# Target: no compound (DMSO)
# Experiment: log2 fold change of degron read counts, EGFP-low vs EGFP+ sorted cells; higher = lower degron-EGFP level without compound (poor expression or instability)
# Details: compound: DMSO control; 18 h
# 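Further: jurkat cells carrying a lentiviral library of mutant zinc finger degrons fused to EGFP plus mCherry, mCherry+ cells FACS sorted, degron abundance counted by next-generation sequencing.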
row,Sequence,log2 fold change of degron read counts
1,B1,-0.647
2,B2,-0.308
3,B3,-1.58
4,B4,-0.29
5,B5,-0.526
6,B6,-2.19
7,B7,-0.737
8,B8,1.54
9,B9,-0.102
10,B10,-0.593
11,B11,-0.14
12,B12,-0.432
13,B13,-1.18
14,B14,-1.69
15,B15,-0.0611
16,B16,-1.08

row,Sequence,log2 fold change of degron read counts
1,B17,0.894
2,B18,-0.577
3,B19,-0.556
4,B20,0.0761
5,B21,-1.33
6,B22,-0.865
7,B23,-0.0208
8,B24,-0.727
9,B25,0.477
10,B26,1.89
11,B27,-1.6
12,B28,-0.644
13,B29,-2.53
14,B30,-1.12
15,B31,1.38
16,B32,-0.242
